From article PMC6114900, “Molecular basis for CesT recognition of type III secretion effectors in enteropathogenic Escherichia coli” (PLoS Pathogens, 2018)

Molecular target: the molecule itself
Experiment: SEC

B1: CesT^138 (purified alone) (domain or fragment)
chain: SSRSELLLDRFAEKIGVGSISFNENRLCSFAIDEIYYISLSDANDEYMMIYGVCGKFPTDNPNFALEILNANLWFAENGGPYLCYESGAQSLLLALRFPLDDATPEKLENEIEVVVKSMENLYLVLHNQGITLENEH
notes: source: E. coli BL21-CodonPlus (DE3), purified (Ni-NTA, SEC)
stoichiometry N: 2
